Results reported in PubChem BioAssay AID463173 (ICCB-Longwood Screening Facility, Harvard Medical School, 2010).
In all, about 52,000 compounds went through this assay and about 1,700 (3.3%) were called active. Rule as the data show it: active = survival mostly below about 52% (no sharp cut-off); inactive = mostly above about 56%. This is one part of the list.

What follows are molecules tested on Wild type (assay: S. aureus survival, RN4220 and DeltatarO strains – OD600, teichoic acid synthesis inhibitors, primary screen (AID 463173)). Settings: S. aureus RN4220 wild type/DeltatarO growth, OD600, 18 h, stronger effect = lower value, screened at 18.75 µg/mL (by protocol).
With `O=C1CC(c2nc3ccccc3n2CCC2CCCCC2)CN1c1ccccc1Cl` (centres undefined) the survival was active: 32%.
For `CCCCN(C(=O)Nc1ccc(Cl)cc1)C1CCN(C(C)=O)CC1`, the survival was inactive: 83%.
With `CC(=O)c1cccc(NC(=O)C2=CC(c3ccc(F)cc3)=NS(=O)(=O)N2C)c1` the survival was inactive: 79%.
`CCNc1nc(SCC(=O)OC)nc(N(C)C)n1` was tested, and the survival was inactive: 110%.
With `Oc1c(C(c2ccccc2F)N2CCC3(CC2)OCCO3)sc2nc(-c3ccco3)nn12` (centres undefined) the survival was inactive: 74%.
With `O=C(CN1CC(=O)Oc2ccccc21)OCC(=O)c1ccc(F)cc1` the survival was inactive: 104%.
With `Cc1ccc2onc(CC(=O)N3CCN(c4ccc(Cl)cc4)CC3)c2c1` the survival was inactive: 49%.
`CCN(c1ccc(Cl)cc1)S(=O)(=O)c1nnc(NC(=O)c2ccco2)s1` was tested, and the survival was inactive: 70%.
In the case of `O=C(NCCc1ccccc1)c1ccc(Cn2c(=O)c3cccn3c3cccnc32)cc1`, the survival is reported as inactive: 78%.
With `COc1ccc(OC)c(CNC(=O)c2ccc(Sc3ccc(Cl)cc3)c(NC(C)=O)c2)c1` the survival was inactive: 73%.
In the case of `CC(C)C(=O)Nc1nncs1`, the survival is reported as inactive: 115%.
For `COC(=O)c1cc2oc3ccccc3c2n1CC(=O)Nc1ccc(OC)c(OC)c1`, the survival was inactive: 95%.
`O=C(NC1CCCCC1)c1ccc(CSc2nc3ccncc3n2Cc2ccccc2)cc1` was tested, and the survival was inactive: 96%.
`Cc1ccc(NC(=O)Cn2c(=O)n(CCCC(=O)NCc3ccc4c(c3)OCO4)c(=O)c3ccccc32)cc1` was tested, and the survival was inactive: 97%.
In the case of `CCOc1cc(C2C(C(=O)Nc3ccccc3)=C(C)Nc3ncnn32)cc(Br)c1O` (centres undefined), the survival is reported as inactive: 66%.
For `CCC(C)NC(=O)C1CCN(S(=O)(=O)c2ccc(-n3cnnn3)cc2)CC1` (centres undefined), the survival was inactive: 108%.
With `Cc1cc2c(cc1S(=O)(=O)N(CCO)Cc1ccccc1)OCC(=O)N2` the survival was inactive: 64%.
In the case of `CCNS(=O)(=O)c1cc(-c2nnc(Nc3cccc(C(F)(F)F)c3)c3ccccc23)ccc1C`, the survival is reported as inactive: 68%.
With `Cc1ccc2cc(C#N)c(SCC(=O)NCc3ccco3)nc2c1` the survival was inactive: 103%.
In the case of `Cc1ccc(C)c(NC(=O)CCS(=O)(=O)c2cccc3nsnc23)c1`, the survival is reported as inactive: 122%.
`CCc1cccc(CC)c1N(COC)C(=O)Cn1c(CC)nc2ccccc21` was tested, and the survival was inactive: 74%.
With `Cc1ccc(NC(=O)Cn2c(CCC(=O)O)ccc2-c2cccs2)cc1Cl` the survival was inactive: 77%.
For `CC(=O)N1CC=C2C(C#N)=C(N)C(C#N)(C#N)C(CCc3ccccc3)C2C1` (centres undefined), the survival was inactive: 114%.
With `Cc1ccc(C)c(N2CCN(C(=O)C3CCN(S(=O)(=O)c4ccc5[nH]c(=O)oc5c4)CC3)CC2)c1` the survival was inactive: 76%.
`CCc1ccc2nc(N3CCN(C(=O)c4ccccc4)CC3)sc2c1` was tested, and the survival was inactive: 69%.
For `Cn1c(=O)oc2cc(S(=O)(=O)N3CCCC(C(=O)N4CCN(c5ccc(Cl)cc5)CC4)C3)ccc21` (centres undefined), the survival was inactive: 91%.
With `CN(C(=O)CSc1nc2ccc(NC(=O)c3ccccc3F)cc2s1)c1ccccc1` the survival was inactive: 110%.
For `COC(=O)c1cccc(NC(=O)N(C)CCc2c(C)nn(C)c2C)c1`, the survival was inactive: 59%.
For `Cc1ccc(CNC(=O)c2cccc(N3CCCS3(=O)=O)c2)cc1`, the survival was inactive: 70%.
With `CCc1ccc(-n2nc3ccc(NC(=O)c4cc(Cl)c(OC)c(Cl)c4)cc3n2)cc1` the survival was inactive: 72%.
With `Cc1ccc(NC(=O)CN(CCc2ccccc2)S(=O)(=O)c2ccccc2)c(C)c1` the survival was inactive: 63%.
With `CCOc1ccc(CNC(=O)Cn2nc(C)n3cccc3c2=O)cc1` the survival was inactive: 96%.
`CCOc1ccc(C2C(=O)N(C3CCCCCC3)CC(=O)N2CCC2=CCCCC2)cc1OC` (centres undefined) was tested, and the survival was inactive: 73%.
In the case of `CCCCn1cc(S(=O)(=O)c2ccc(OCC)cc2)c(=O)c2cc(OC)c(OC)cc21`, the survival is reported as inactive: 63%.
With `CCOc1ccc(N2CC(C)Cn3c2nc2c3c(=O)n(CC(=O)O)c(=O)n2C)cc1` (centres undefined) the survival was inactive: 65%.
For `COc1cc(N2C(=O)CSC23C(=O)N(C)c2ccccc23)cc(OC)c1OC` (centres undefined), the survival was inactive: 65%.
For `COc1ccc(CN2CCc3nc(Nc4ccccc4)ncc3C2)c(OC)c1OC`, the survival was inactive: 112%.
For `Cc1ccc(CNC(=O)Cn2c(=O)n(Cc3ccccc3)c(=O)c3c2c2cc(C)ccc2n3C)cc1`, the survival was inactive: 74%.
With `Cc1cc(C)cc(NC(=O)C(=O)NCC(c2ccc3c(c2)OCO3)N2CCOCC2)c1` (centres undefined) the survival was inactive: 94%.
In the case of `COCCN1Cc2cccc(C(=O)Nc3ccc(C)c(F)c3)c2C1=O`, the survival is reported as inactive: 77%.
For `COc1ccc(Nc2nc3c(S(=O)(=O)c4ccccc4)nnn3c3ccc(Cl)cc23)c(OC)c1`, the survival was inactive: 116%.
With `Fc1ccc(-c2cc(-c3nc(-c4ccccc4)no3)[nH]n2)cc1` the survival was inactive: 75%.
For `CC(C)c1ccc(NC(=O)c2cn(C3CCCCC3)c(=O)c3c2c2ccccc2n3C)cc1`, the survival was inactive: 86%.
For `Cc1ccccc1CNC(=O)c1cccc(NC(=O)c2nsc3ccccc23)c1`, the survival was inactive: 51%.
For `COc1ccc(-c2nc(C)c(CCNC(=O)c3ccc(F)c(F)c3)s2)cc1`, the survival was inactive: 71%.
In the case of `Cc1ccccc1NC(=O)N1CCc2cc(S(=O)(=O)N3CCC(C)CC3)ccc21`, the survival is reported as inactive: 82%.
In the case of `CCCC(=O)Nc1ccc2nc(SCC(=O)N3CCCC3)sc2c1`, the survival is reported as inactive: 111%.
In the case of `CC(C)Cn1cc(NC(=O)NCc2ccccc2)c2ccccc2c1=O`, the survival is reported as inactive: 83%.
For `CC(C)OC(=O)CSc1nc2cccnc2n1C1CCCCC1`, the survival was inactive: 102%.
`Cc1ccc2c(c1)c1c(c(=O)n(-c3cccc(Cl)c3)c(=O)n1CC(=O)c1ccc(Cl)cc1)n2C` was tested, and the survival was inactive: 131%.
For `Cc1nc2nc(SCC(=O)Nc3cccc(Cl)c3)nn2c(C)c1Cc1ccccc1`, the survival was inactive: 80%.
`COc1ccccc1C1=NS(=O)(=O)N(C)C(C(=O)Nc2cc(OC)c(OC)c(OC)c2)=C1` was tested, and the survival was inactive: 85%.
In the case of `COc1ccc(N2C(=O)CSC23C(=O)N(Cc2ccccc2F)c2ccccc23)cc1Cl` (centres undefined), the survival is reported as inactive: 68%.
With `O=S(=O)(NCc1ccccc1Cl)c1ccc(-c2cnc(C3CC3)o2)cc1` the survival was inactive: 75%.
For `CCC1=Nc2cc(C(=O)NCc3ccccc3OC)ccc2Sc2ccc(Cl)cc21`, the survival was inactive: 78%.
`Cc1c(CC(=O)N2CCCCC2)c(=O)oc2cc3occ(C(C)(C)C)c3cc12` was tested, and the survival was inactive: 83%.
For `COc1ccc(-c2cn3cccnc3n2)cc1NC(=O)COc1ccccc1`, the survival was inactive: 84%.
In the case of `O=C(CSc1ccccc1)Nc1c[nH]c(=O)[nH]c1=O`, the survival is reported as inactive: 101%.
`CC(=O)N(Cc1cc2cc(C)ccc2[nH]c1=O)C1CCCC1` was tested, and the survival was inactive: 117%.
`CC1(C2CCC3C4CCC5CC6(C/C(=N\O)C5(C)C4C(O)CC32C)OCCO6)OCCO1` (centres undefined) was tested, and the survival was inactive: 99%.
With `COCCNc1ncnc2c1cnn2-c1cc(Cl)ccc1C` the survival was inactive: 84%.
With `Cc1cc(C)c2c(n1)SCC(=O)N2CC(=O)Nc1ccc(C)c(C)c1` the survival was inactive: 123%.
In the case of `CN1CCN(C(c2ccc(Cl)cc2Cl)c2sc3nc(-c4ccco4)nn3c2O)CC1` (centres undefined), the survival is reported as inactive: 81%.
`Cn1nc(C(=O)NCc2cccc(Cl)c2)c2c1-c1ccccc1SC2` was tested, and the survival was inactive: 81%.
With `CCC(=O)N1c2ccccc2CC1C(=O)NCCc1ccccc1Cl` (centres undefined) the survival was inactive: 135%.
For `Cc1ccc(S(=O)(=O)C2(C(=O)Nc3ccc(C)c(Cl)c3)CC2)cc1`, the survival was active: 4%.
For `Cc1ccc(OCC(=O)Nc2ccc(OCc3cc(=O)n4ccsc4n3)cc2)cc1`, the survival was inactive: 89%.
With `CC(C)(C)C(=O)NC1(C(F)(F)F)NC(=O)N(c2ccc(F)cc2)C1=O` (centres undefined) the survival was inactive: 68%.
In the case of `COc1ccc(N2CCN(c3ncnc4c3cnn4-c3ccc(C)c(Cl)c3)CC2)cc1`, the survival is reported as inactive: 80%.
For `Cc1ccc(Cl)cc1N1CCN(C(=O)CN2C(=O)COc3ccc(S(=O)(=O)N4CCC(C)CC4)cc32)CC1`, the survival was inactive: 79%.
`Cc1ccc(CNC(=O)CCS(=O)(=O)c2cc3c(cc2Cl)NC(=O)CO3)cc1` was tested, and the survival was inactive: 88%.
`COc1ccc(N2CCN(CC(O)COc3ccc(C)cc3C)CC2)cc1` (centres undefined) was tested, and the survival was inactive: 87%.
`CC1=C(c2ccc(C)cc2)S(=O)(=O)NC1=NCCCN1CCN(c2cc(C)ccc2C)CC1` was tested, and the survival was inactive: 120%.
With `O=C(NCc1ccc(Cl)cc1)c1ccc(NC(=O)N2CC3CCCN3c3ccccc32)cc1` (centres undefined) the survival was inactive: 83%.
For `CCOC(=O)CN(Cc1ccccc1)C(C(=O)NC1CCCCC1)c1ccc(C)cc1` (centres undefined), the survival was active: -2%.
For `CCOC(=O)C1CCN(C(=O)Cn2c(-c3cccs3)cc3cc(Cl)ccc32)CC1`, the survival was inactive: 74%.
In the case of `COc1ccc(CNC(=O)c2ccc(-c3nc(CSc4ccc(C)cc4)c(C)o3)cc2)cc1OC`, the survival is reported as active: -3%.
In the case of `Cc1nn(C(=O)c2ccccc2)c(C)c1S(=O)(=O)N1CCOCC1`, the survival is reported as inactive: 83%.
For `CCC(=O)N1CCc2cc(S(=O)(=O)NC(C(=O)NCc3ccccc3Cl)C(C)C)ccc21` (centres undefined), the survival was inactive: 84%.
With `Cc1c(C(=O)NCc2ccccc2Cl)sc2nc(-c3ccc(F)cc3)cn12` the survival was inactive: 86%.
With `O=C(NCc1ccc(F)cc1)c1cc(Sc2ccc(F)cc2F)nc2ccccc12` the survival was inactive: 73%.
For `CCOc1ccccc1CNS(=O)(=O)c1ccc2c(c1)C(C)(C)C(=O)N2C`, the survival was inactive: 119%.
`NC(N)=NC(=O)c1ccc(N)cc1` was tested, and the survival was inactive: 112%.
In the case of `Cc1ccc(C)c(NS(=O)(=O)c2ccc3oc(=O)c4ncn(C)c4c3c2)c1`, the survival is reported as inactive: 72%.
For `CCn1c(=O)c2sccc2n2c(CCC(=O)Nc3ccc(C(C)C)cc3)nnc12`, the survival was inactive: 72%.
`Cc1ccc(N(C)C(=O)C2CCN(S(=O)(=O)c3cn(C)cn3)CC2)cc1` was tested, and the survival was active: 10%.
In the case of `CCn1c(=O)c2cc(C(=O)NCCc3ccc(Cl)cc3)sc2c2ccccc21`, the survival is reported as inactive: 79%.
With `CCc1nnc(SC(CC)C(=O)Nc2cc(C)ccc2C)c2cc3occc3n12` (centres undefined) the survival was inactive: 85%.
With `COc1ccc(OCC(=O)NC(Cc2c[nH]c3ccccc23)C(=O)O)cc1` (centres undefined) the survival was inactive: 77%.
